# Data reported in patent publication US12655458B2, “Methods for cyclization of (poly)peptides comprising nγ-hydroxy- or Nγ-amino-L-asparagine” (priority 2021, dated 2026).
# For part of these data: The name of at least one read-out is uncertain. Some of these results come from one statement about several compounds together. Residues, ends and D or L forms follow the SMILES beside them. *: point of attachment. NHOH = ON*
# System: VyPAL2
# Assay: Kinetics of peptide cyclization by VyPAL2
# Format: biochemical
# Conditions: cyclization by VyPAL2, 37° C., PBS pH 6.5
# Method: (§1) Enzyme-meditated cyclization and ligation reactions were performed in 20 mM PBS buffer (pH 6.5) at 37° C. with 0.5 mM TCEP. The reaction was quenched by adding 20% TFA. The enzyme concentration was determined by the absorbance at 280 nm using Nanodrop. The reactions were monitored by reverse-phase analytical HPLC, and the products were characterized by MALDI-MS or ESI-MS.
# (§2) Model peptides (1-6, see Table 51) were used in the kinetic studies. The cyclization reaction was performed in 20 mM PBS buffer (pH 6.5) containing 0.5 mM TCEP, at 37° C. The reaction was monitored by analytical RP-HPLC (5% buffer B-45% buffer B in 20 min). Kinetic constants for these peptides were obtained from the initial reaction rates. To ensure that the measurement of reaction rate was in the range of the initial velocity, the reaction was quenched using 20% TFA, when less than 25% of the substrate has been converted. Each recorded value is an average of measurements in triplicate. All the numbers were input into GraphPad Prism (GraphPad Software, San Diego) to obtain the Michaelis-Menten curve and calculate the kinetic parameters (kcat and Km).
# VyPAL2 was expressed using sf9 insect cells as described previously (Hemu et al. PNAS, 2019, 116, 11737-11746). 100 mL of the viral vector containing VyPAL2 gene was used to infect sf9 cells at cell density of 2.5×10^6 cells/mL. MOI for infection was set between 1-10 for protein expression. The culture was incubated at 27° C. shaker for 3 days (72 hours) at 135 rpm. Protein purification was performed in three steps: Immobilized Metal Affinity Chromatography (IMAC), Ion-Exchange Chromatography (IEX), and Size-Exclusion chromatography (SEC). Pro-VyPAL2 was activated at pH 5 in 50 mM sodium citrate buffer (0.1 M NaCl, 1 mM DTT, 0.5 mM LS) for 2-3 h at 37° C. After activation, the activated enzyme was purified by SEC at pH 6.5 (20 mM PBS, 0.1 M NaCl, 1 mM DTT).
row,Molecule,Kcat/Km
1,AIYRRGRLYRRNSL [Peptide 4],"107,294 M^−1/s^−1"
2,AIYRRGRLYRRDSL [Peptide 6],281 M^−1/s^−1
3,AIYRRGRLYRRN(OH)SL [Peptide 5],"7,857 M^−1/s^−1"

# Biological target: T1, MMP2 (Homo sapiens, UniProt P08253)
# T1 construct: purchased Sigma-Aldrich
# T1 sequence (P08253 110-660): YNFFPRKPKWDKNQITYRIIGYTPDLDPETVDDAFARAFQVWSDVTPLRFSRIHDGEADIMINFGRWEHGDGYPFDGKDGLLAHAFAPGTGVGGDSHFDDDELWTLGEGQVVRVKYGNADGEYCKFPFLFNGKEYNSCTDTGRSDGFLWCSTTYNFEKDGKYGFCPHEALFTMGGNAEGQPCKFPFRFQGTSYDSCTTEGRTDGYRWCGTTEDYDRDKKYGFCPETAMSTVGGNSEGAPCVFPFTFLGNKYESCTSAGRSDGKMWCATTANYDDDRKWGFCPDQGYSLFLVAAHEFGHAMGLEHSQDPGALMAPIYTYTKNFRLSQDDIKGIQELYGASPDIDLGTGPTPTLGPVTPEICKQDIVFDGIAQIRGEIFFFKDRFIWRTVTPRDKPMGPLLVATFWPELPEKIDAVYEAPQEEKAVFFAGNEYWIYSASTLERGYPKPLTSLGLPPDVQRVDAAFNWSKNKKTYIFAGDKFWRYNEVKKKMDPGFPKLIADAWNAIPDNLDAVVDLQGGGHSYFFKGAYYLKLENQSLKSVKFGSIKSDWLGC
# Assay: MMPs inhibition assay (FRET substrate), MMP2
# Format: biochemical
# Conditions: not given
# Method: The inhibitory activity of the peptides was determined by measuring the MMPs' protease activity towards a FRET substrate. 0.8 nM MMP2 or MMP9 (Sigma-Aldrich), 10 μM substrate (FAM-Lys-Pro-Leu-Gly-Leu-Lys(Dabcyl)-Ala-Arg-NH2, λex 490 nm; λem 520 nm) and various concentrations of the peptides (0.0001 μM-10 μM or 0.001 μM-100 μM) were used. The reactions were performed in 50 mM Tris-HCl buffer (pH 7.5) containing 150 mM NaCl, 10 mM CaCl2, 0.05% Brij35, at 37° C. MMP2 was pre-incubated with the peptide inhibitors for 10 min before adding the substrate. All the numbers were input into GraphPad Prism (GraphPad Software, San Diego) for IC50 calculation.
row,Molecule,inhibitory activities towards MMP2 of cyclized products (vs linear APP-IP peptides)
1,CC[C@H](C)[C@@H]1NC(=O)CNC(=O)[C@H](CO)NC(=O)CNC(=O)[C@H](C)NC(=O)CNC(=O)[C@H](CO)NC(=O)[C@@H]2CCCN2C(=O)[C@H](CCSC)NC(=O)[C@H](CC(C)C)NC(=O)[C@H](C)NC(=O)[C@H](CC(=O)NO)NC(=O)[C@H](CCC(N)=O)NC(=O)CNC(=O)[C@H](Cc2ccc(O)cc2)NC(=O)[C@H](CO)NC1=O [Peptide 13] (cyclo(GSGISYGQD(NHOH)ALMPSGA)),decreased inhibitory activities
2,CC[C@H](C)[C@@H]1NC(=O)CNC(=O)[C@H](CO)NC(=O)[C@H]([C@@H](C)O)NC(=O)[C@H](C)NC(=O)[C@H](CCSC)NC(=O)[C@H](Cc2ccc(O)cc2)NC(=O)CNC(=O)[C@H](CO)NC(=O)[C@@H]2CCCN2C(=O)[C@H](CCSC)NC(=O)[C@H](CC(C)C)NC(=O)[C@H](C)NC(=O)[C@H](CC(=O)NO)NC(=O)[C@H](CCC(N)=O)NC(=O)CNC(=O)[C@H](Cc2ccc(O)cc2)NC(=O)[C@H](CO)NC1=O [Peptide 14] (cyclo(ATSGISYGQD(NHOH)ALMPSGYM)),decreased inhibitory activities
3,CC[C@H](C)[C@@H]1NC(=O)CNC(=O)[C@H](CO)NC(=O)CNC(=O)[C@H](CO)NC(=O)[C@@H]2CCCN2C(=O)[C@H](CCSC)NC(=O)[C@H](CC(C)C)NC(=O)[C@H](C)NC(=O)[C@H](CC(=O)NO)NC(=O)[C@H](CCC(N)=O)NC(=O)CNC(=O)[C@H](Cc2ccc(O)cc2)NC(=O)[C@H](CO)NC1=O [Peptide 12] (cyclo(SGISYGQD(NHOH)ALMPSG)),decreased inhibitory activities
4,"CC[C@H](C)[C@@H]1NC(=O)[C@@H]2CCCN2C(=O)[C@H](CCSC)NC(=O)[C@H](CC(C)C)NC(=O)[C@H](C)NC(=O)[C@H](CC(=O)NO)NC(=O)[C@H](CCC(N)=O)NC(=O)CNC(=O)[C@H](Cc2ccc(O)cc2)NC(=O)[C@H](CO)NC1=O [Peptide 10, cyclo[ISYGQN(OH)ALMP]] (cyclo(ALMPISYGQD(NHOH)))",decreased inhibitory activities
5,"CC[C@H](C)[C@@H]1NC(=O)[C@H](CO)NC(=O)CNC(=O)[C@@H]2CCCN2C(=O)[C@H](CCSC)NC(=O)[C@H](CC(C)C)NC(=O)[C@H](C)NC(=O)[C@H](CC(=O)NO)NC(=O)[C@H](CCC(N)=O)NC(=O)CNC(=O)[C@H](Cc2ccc(O)cc2)NC(=O)[C@H](CO)NC1=O [Peptide 11, cyclo[SISYGQN(OH)ALMPG]] (cyclo(ALMPGSISYGQD(NHOH)))",decreased inhibitory activities
6,CC[C@H](C)[C@@H]1NC(=O)CNC(=O)[C@H](CO)NC(=O)[C@H](CCCNC(=N)N)NC(=O)[C@H]([C@@H](C)O)NC(=O)[C@H](C)NC(=O)[C@H](CCSC)NC(=O)[C@H](Cc2ccc(O)cc2)NC(=O)[C@H](CCC(N)=O)NC(=O)CNC(=O)[C@H](CO)NC(=O)[C@@H]2CCCN2C(=O)[C@H](CCSC)NC(=O)[C@H](CC(C)C)NC(=O)[C@H](C)NC(=O)[C@H](CC(=O)NO)NC(=O)[C@H](CCC(N)=O)NC(=O)CNC(=O)[C@H](Cc2ccc(O)cc2)NC(=O)[C@H](CO)NC1=O [Peptide 15] (cyclo(ATRSGISYGQD(NHOH)ALMPSGQYM)),decreased inhibitory activities

# System: butelase-1
# Assay: Kinetics of peptide cyclization by butelase-1
# Format: biochemical, Clitoria ternatea
# Conditions: cyclization by butelase-1, 37° C., PBS pH 6.5
# Method: as §1, §2
# Plant flowers of Clitoria ternatea grown in the Nanyang Technological University Herb Garden were collected. Butelase-1 was extracted using a chromatography method described previously.^5 Purified butelase-1 was obtained and stored at 4° C. or −80° C. in 50 mM sodium phosphate buffer (pH 6.0) containing 1 mM EDTA, 5 mM β-mercaptoethanol, 0.01% Tween 20 and 20% sucrose.
row,Molecule,Kcat/Km
1,AIYRRGRLYRRDHV [Peptide 3],721 M^−1/s^−1
2,AIYRRGRLYRRN(OH)HV [Peptide 2],"35,020 M^−1/s^−1"
3,AIYRRGRLYRRNHV [Peptide 1],"220,148 M^−1/s^−1"
